# Data from ChEMBL document CHEMBL4888484, “Replenishing the malaria drug discovery pipeline: Screening and hit evaluation of the MMV Hit Generation Library 1 (HGL1) against asexual blood stage Plasmodium falciparum ,using a nano luciferase reporter read-out” (2022).
# In all, about 150,000 compounds went through this assay and about 540 (0.36%) showed an effect of 50% or more. This is one part of the list.
# System: Plasmodium falciparum
# Test: Primary screen in NF54 nanoGlo assay, in single point, at 2uM, 72h; a lower Z score goes with more inhibition
# Type: functional, Erythrocyte
# Details: timepoint 72 hour
SMILES,% Inhibition [%],Z score
O=C1N(CC2CCCCC2)CCC[C@@]1(O)CNC1CCCC1,-23,2.01
CCS(=O)(=O)N[C@@H](C)Cc1ccccc1Br,-11,1.16
COc1ccc(Nc2ncc(C#N)c(Nc3ccccc3)c2C#N)cc1,-4,0.55
CCCC(CCC)NC(=O)c1cncn1-c1ccc(-c2cc(C(F)(F)F)cc(C(F)(F)F)c2)cc1,-16,1.63
Cc1nn(C)c2nc(N[C@@H](C)Cn3cncn3)sc12,-24,2.62
CC(C)(C)NS(=O)(=O)c1cnc(NS(=O)(=O)c2ccccc2)s1,0,0.07
COCc1nc(C)c(C(=O)OCC(C)(C)N2CCNC2=O)s1,-5,0.63
N#Cc1cc(C(=O)NC23CCC(C(F)(F)F)(CC2)CC3)c[nH]1,-6,1.13
CN1[C@@H](c2ccc(Cl)cc2)[C@@H](C(=O)NCc2cccnc2)C[C@@]1(C)C(=O)O,-1,0.25
Cc1ccc(CNC(=O)c2cc(-c3cccc4ccccc34)[nH]n2)cc1,33,-3.77
O=C([C@H]1CCS(=O)(=O)C1)N(Cc1ccc(Br)cc1)c1ccc(F)cc1F,29,-3.29
CCn1c(-n2nc(C)nc2[C@H]2CCS(=O)(=O)C2)nc2ccccc21,4,-0.76
Cc1cc(N2CC[C@@]3(CCCOC3)C2)nc(C(C)C)n1,-6,0.76
Cc1ccc(C(=O)NCC2(N3CCN(C)CC3)CCCC2)n1C,-1,0.12
CCOC(=O)c1c(C)[nH]c(C(=O)N2CCC(CO)(Cc3ccccc3)CC2)c1C,-13,2.39
CCOc1nc2cc(NC(=O)CC#N)ccc2o1,-4,0.66
O=C(NCCc1nnc2n1CCCC2)c1ccc(Cl)cn1,-6,0.58
C[C@H](NC(=O)c1ccc(Br)cc1)C(=O)NCc1ccc(S(N)(=O)=O)cc1,0,-0.05
N#Cc1nc(C2CC2)oc1N1CCN(C(=O)COC2CCCC2)CC1,2,-0.21
CC(=O)Nc1nc(CC(=O)N(Cc2cccc(C)c2)C(C)C)n[nH]1,5,-0.64
CCN(CC)C(=O)C1CCN(c2nc3nonc3nc2NC2CCCC2)CC1,-3,0.61
OC1CCN(Cc2ccc(CNc3ncccc3Cl)cc2)CC1,-8,1.09

SMILES,% Inhibition [%],Z score
COC1CCC2OCCN(Cc3c(F)cccc3F)C2C1 (stereo unspecified),-3,0.28
COc1ccc(S(=O)(=O)NC[C@H]2O[C@@H](CO)[C@@H](O)[C@H]2N2CCN(c3ccccn3)CC2)cc1,31,-3.46
COCCC[C@H]1CCCCN1C(=O)c1c[nH]c(C)cc1=O,-7,1.57
CCN(CC(=O)NC)S(=O)(=O)c1ccccc1OC(F)(F)F,5,-0.9
COCC(=O)N[C@@H]1CCN(C(=O)Cc2ccc(F)cc2)C[C@@H]1CO,2,-0.23
CC(C)Cn1ncnc1CS(=O)(=O)[C@H]1CCCOC1,-1,0.19
CN(Cc1ccc(Br)cc1)Cn1nnc2ccccc2c1=O,-16,2.3
COC(=O)N1CCCC(C(=O)OC2CCC3CCCCC3C2)C1 (stereo unspecified),-9,1.01
COCc1nc(OC)cc(N2CC(c3n[nH]c(C)n3)C2)n1,-7,1.21
C[C@@H](CN(C)Cc1c(F)cccc1Cl)CS(C)(=O)=O,-4,0.5
CCc1nnc(CNC(=O)c2cc(CC(C)C)no2)s1,-14,1.9
C=CCNC(=O)c1cc(Br)cc(Br)c1OC,38,-1.25
Cc1ccc(-c2cccc(CN(C)C3CCS(=O)(=O)CC3)c2)o1,-8,1.26
CCN1C(=O)NC(=O)C12CCN(C(=O)CCc1scnc1C)CC2,-9,1.14
NC(=O)C(c1ccccc1)N1CCOC(c2ccc(Cl)cc2)C1 (stereo unspecified),-11,1.59
CCOC(=O)N1CCN(C(=O)C[C@@H]2NC(=O)N(c3ccc(C(C)C)cc3)C2=O)CC1,7,-0.92
CCN1CCC(NCc2csnn2)C1c1cc(F)c(F)c(F)c1 (stereo unspecified),7,-0.89
CN(C(=O)[C@@H]1COc2ccc(Br)cc21)c1ccnn1C,-6,0.47
CCc1cc(O)nc(Cn2nnc(-c3ccccc3)n2)n1,34,-3.81
Nc1c2c(-c3ccc(F)cc3)nc(N3CCN(C4CCCCC4)CC3)nc2nn1-c1ccc(Cl)cc1,19,-2.19
CNC(=O)c1noc(CNC(=O)c2ccncc2C)n1,-12,2.01
